In PubChem BioAssay AID1508642 (National Center for Advancing Translational Sciences (NCATS), 2021):
Out of some 43,000 compounds screened, about 200 (0.47%) were called active. Roughly 12% stayed inconclusive and do not appear here. The call rests on the fitted dose curve; in most records, active means well fitted cell-killing curve with a large enough effect; inconclusive means small, poorly fitted or top-dose-only effect, or effect the other way; inactive means flat fitted curve, though single readings scatter. Some of the results follow.

Assay: Cell viability qHTS assay in S16 Pmp22-F2sN cells; further: nearly all actives have a fitted effect of over 65% in size
Details: S16 Pmp22-F2sN Schwann cells (luciferase reporters placed in the Pmp22 gene) viability, CellTiter-Glo, 24 h; series mostly up to 57.5 µM; activity change, negative = cytotoxicity: at the top concentration
Procedure, shortened: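 Rat S16 Schwann reporter line, 24 h treatment with library compounds delivered at 23 nL per well. Cell viability by CellTiter-Glo luminescence.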
On the % scale 0 is the no-effect control and ±100 the full control effect.

| Compound | activity change, negative = cytotoxicity |
| --- | --- |
| Cc1nn(C(=O)COc2ccccc2Br)c(C)c1Sc1ccccc1 | inactive: 1.49% |
| O=C(CSc1n[nH]c(-c2ccccc2)n1)N1CCN(c2ccccc2F)CC1 | inactive: 4.46% |
| Cc1cccc(NC(=O)c2sc3nc(-c4ccccc4)cn3c2C)c1C | inactive: -14.4% |
| COc1ccc2c(CNCc3ccccc3OC)c(C(=O)O)n(Cc3ccc(F)cc3Cl)c2c1 | inactive: -3.23% |
| CCc1ccc(NC(=O)C2CCC(CNS(=O)(=O)c3ccc4c(c3)C(C)(C)C(=O)N4C)CC2)cc1 (configuration not stated) | inactive: 13.9% |
| Cc1cccc(NC(=O)C(=O)NCCc2sc(-c3ccccc3)nc2C)c1C | inactive: 13.6% |
| Cc1c(Cl)cccc1NC(=O)C(CCS(C)(=O)=O)N1Cc2ccccc2C1=O (configuration not stated) | inactive: 1.61% |
| COc1ccc(-c2cn3c(n2)sc2cc(C(=O)NC4CCCCCC4)ccc23)cc1 | inactive: -1.48% |
| Cc1ccc(Cl)cc1NC(=O)N1CCC2(CC1)Oc1ccccc1C(=O)N2Cc1ccccc1F | inactive: -0.0945% |
| CCS(=O)(=O)N1CC(=O)N(c2cc(C)ccc2C)C(C)(C(=O)NC2CCCCC2)C1 (configuration not stated) | inactive: 11.4% |
| COc1ccc(-n2nnc(-c3nsc(NC(=O)c4cccs4)n3)c2C)cc1OC | inactive: -4.6% |
| CC(CNC(=O)c1cc(-c2ccccc2)n[nH]1)c1ccccc1 (configuration not stated) | inactive: 7.03% |
| CC1CCCN(c2c(S(=O)(=O)c3ccccc3)cnc3ccc(Cl)cc23)C1 (configuration not stated) | inactive: -8.84% |
| Cc1ccc(S(=O)(=O)c2c(Nc3cc(C)ccc3C)sc(C(=O)c3ccc4c(c3)OCO4)c2N)cc1 | inactive: -25.1% |
| COC(=O)c1ccc(Cn2c(SCc3ccccc3F)nc3ccncc32)cc1 | inactive: 3.93% |
| CCOc1ccc(CCNC(=O)Cn2c(=O)c3cccn3c3ccc(F)cc32)cc1OCC | inactive: 10.1% |
| Cc1nc2nc(NCc3cccc(Cl)c3)[nH]n2c(=O)c1Cc1ccccc1 | inactive: 17.1% |
| CCOc1ccc2nc(N3CCCC(C(=O)NCCCOC)C3)sc2c1 (configuration not stated) | inactive: -5.33% |
| COc1cccc(C(=O)c2cn(CC(=O)Nc3cccc(C(F)(F)F)c3)c3nc(C)ccc3c2=O)c1 | inactive: 0.199% |
| CCN(CC)S(=O)(=O)c1ccc2c(c1)nc(CN(C)C(=O)Nc1cccc(Cl)c1)n2C | inactive: -27.8% |
| CCCN(CCC)C(=O)CN1C(=O)CSc2ccc(S(=O)(=O)N3CCC(C)CC3)cc21 | inactive: -7.83% |
| COc1ccc(Cn2c(CCC(=O)Nc3ccc(C)c(C)c3)nc3cccnc32)cc1 | inactive: -2.45% |
| CC(=O)N1CCc2cc(S(=O)(=O)NC(CC(C)C)C(=O)NCCc3ccc(C)cc3)ccc21 (configuration not stated) | inactive: -6.45% |
| COc1ccc(OCCn2c(C(C)Oc3ccccc3)nc3ccccc32)cc1 (configuration not stated) | inactive: -24.8% |
| Cc1ccc(Cl)cc1-n1ncc2c(NCc3ccc(F)cc3)ncnc21 | inactive: -26.2% |

| Compound | activity change, negative = cytotoxicity |
| --- | --- |
| COc1ccc(CNC(=O)C2CCN(S(=O)(=O)c3ccc(F)cc3)CC2)cc1 | inactive: 7.04% |
| CSc1ncc(C(=O)Nc2cccc(C)c2C)c(-c2ccccc2)n1 | inactive: 17.1% |
| Cc1ccc(-c2nc(-c3cc4cccc(OCc5ccc(F)cc5)c4oc3=O)no2)cc1 | inactive: 4.78% |
| CCN(c1ccccc1)S(=O)(=O)c1nnc(NC(=O)C(C)(C)C)s1 | inactive: 2.37% |
| CCN1CCc2nc3sc(C(=O)c4ccccc4)c(N)c3cc2C1 | inactive: -13.7% |
| COC(=O)c1ccc2c(c1)N(Cc1cc(C)ccc1C)C(=O)c1ccccc1S2 | inactive: 12.4% |
| O=C(CS(=O)(=O)c1cccc2nsnc12)Nc1ccc(F)cc1 | inactive: -5.62% |
| CCCN(CCC)CCNC(=O)Cn1cc2c(n1)-c1c(oc(C(=O)N3CCCC3)c1C)CC2 | inactive: 6% |
| Cc1cccc(-c2nnn3c2nc(NCCc2ccc(S(N)(=O)=O)cc2)c2ccccc23)c1 | inactive: 15.1% |
| COc1ccc(OC)c(NC(=O)CSc2cn(CC(=O)N3CCCCCC3)c3ccccc23)c1 | inactive: -21% |
| Cc1cc(NCc2ccccc2Cl)n2cnnc2n1 | inactive: -18.3% |
| Cc1ccc(NC(=O)CSc2nc3ccccc3nc2Cc2ccccc2)c(C)c1 | inactive: -3.08% |
| CCOc1ccc(Cn2c(-c3ccc(OCC)c(OC)c3)nc3ccccc32)cc1OC | inactive: -16.1% |
| COCCNC(=O)CSc1nc2cc3c(cc2c(=O)n1CCCC(=O)NCc1ccc(OC)cc1)OCO3 | inactive: 2.95% |
| COCCNC(=O)c1ccc2c(c1)N(Cc1cc(C)ccc1C)C(=O)c1ccccc1S2(=O)=O | inactive: -7.14% |
| COc1ccc(S(=O)(=O)N2CCN(c3ccc(Cl)c(Cl)c3)CC2)c2ccccc12 | inactive: 3.1% |
| CCSc1ncc(Cl)c(C(=O)N(Cc2ccc(N(C)C)cc2)Cc2ccco2)n1 | inactive: -1.16% |
| CC1=C(C(=O)Nc2cccnc2)C(c2ccccc2)n2nc(SCc3ccccc3Cl)nc2N1 (configuration not stated) | inactive: 8.58% |
| COc1ccc(C)cc1NC(=O)C1CCN(S(=O)(=O)c2ccc3c(c2)CCCN3C(C)=O)CC1 | inactive: -6.1% |
| O=C(Nc1ccc(N2CCN(c3ccc(F)cc3)CC2)c(C(=O)O)c1)c1ccccc1F | inactive: 6.4% |
| CCCCOc1ccc(Cn2c(=O)oc3ccc(C)cc32)cc1 | inactive: 0.123% |
| CCOC(=O)c1ccc(NC(=O)CSc2nc3ccccc3c(=O)n2CCNC(C)=O)cc1 | inactive: 3.76% |
| CCc1ccc(NC(=O)CN2C(=O)C(c3ccc(F)cc3)=NC2(C)C)cc1 | inactive: 9.97% |
| Cc1ccc(CCNC(=O)Cn2ncc3c([nH]c4ccc(C)cc43)c2=O)cc1 | inactive: -1.57% |
| COc1ccc(S(=O)(=O)Nc2ccc3oc4c(c3c2)C(=O)CC(C)(C)C4)cc1 | inactive: -1.86% |

| Compound | activity change, negative = cytotoxicity |
| --- | --- |
| COc1cccc(C(=O)Nc2cccc(NC(=O)c3ccc(Cl)cc3Cl)c2)c1 | inactive: -2.29% |
| CCCCN(C)C(=O)Cn1c(C2CC(=O)N(c3ccc(C)cc3)C2)nc2ccccc21 (configuration not stated) | inactive: 13.7% |
| CCOc1ccccc1NC(=O)c1c(NCc2ccc(C)o2)sc2c1CCC(C)C2 (configuration not stated) | inactive: 13.2% |
| Cc1cccc(NS(=O)(=O)c2ccc3c(c2)[C@H]2C=CC[C@H]2[C@@H](c2ccc(F)cc2)N3)c1 | inactive: -12.7% |
| CCc1ccc(C(=O)c2cn(CC(=O)Nc3cc(OC)ccc3OC)c3ccc(C)cc3c2=O)cc1 | inactive: 6.85% |
| CCCOc1ccc(-c2nn(-c3ccccc3)cc2C2NC(=O)NC(C)=C2C(=O)OC)cc1 (configuration not stated) | inactive: 3.94% |
| Cc1ccc(C)c(NC(=O)Cn2c(=O)nc(-c3ccccc3)c3ccccc32)c1 | inactive: 6.03% |
| CCC(C)Nc1sc(S(=O)(=O)CC)nc1S(=O)(=O)c1ccc(C)cc1 (configuration not stated) | inactive: -1.44% |
| CCOc1ccc(CNC(=O)CCCn2nc(C)c3sc4ccccc4c3c2=O)cc1 | inactive: 2.25% |
| COC(=O)c1cc(S(=O)(=O)NCC2CCN(Cc3ccc(C)cc3)CC2)cn1C | inactive: 13.6% |
| COc1ccc(-c2nc(CCNC(=O)c3cccs3)cs2)cc1 | inactive: -16% |
| CNC(=O)Cn1nc(-c2ccc(Cl)cc2)c2ccccc2c1=O | inactive: 1.07% |
| CS(=O)(=O)N(CC(=O)Nc1ccc(Br)cc1)c1ccccc1Br | inactive: -17.2% |
| Cc1nn(C)c2c1c(-c1ccccc1)cc(=O)n2Cc1ccccc1Cl | inactive: -5.33% |
| COc1cccc(N2CCN(C(=O)C3CCN(S(=O)(=O)c4cccc5nonc45)CC3)CC2)c1 | inactive: -4.66% |
| Cc1ccc(CN(C(=O)COc2ccc(Cl)cc2)c2ccccn2)o1 | inactive: -1.46% |
| Cc1cc(NC(=O)CCNS(=O)(=O)c2ccc3c(c2)CCCC(=O)N3)ccc1Br | inactive: -3.57% |
| CCCCC(CC)CNC(=O)CN(C)S(=O)(=O)c1ccc2c(c1)c(=O)n(C)c(=O)n2C (configuration not stated) | inactive: -13.1% |
| CCc1ccc(CNCc2c(C(=O)O)c(C)n(Cc3c(F)cccc3Cl)c2C)cc1 | inactive: -5.42% |
| CCOc1cccc(C(=O)N(Cc2ccc(N(C)C)cc2)CC2CCCO2)c1 (configuration not stated) | inactive: 10.3% |
| COc1cccc(-n2c(=O)c3c(C)c(C)sc3n(CC(=O)Nc3ccccc3OC)c2=O)c1 | inactive: 12.2% |
| Nc1nc(SCC(=O)Nc2cccc(C(F)(F)F)c2)n[nH]1 | inactive: -4.24% |
| CCOC(=O)c1c(-c2ccc(C)cc2)csc1NC(=O)c1cc(-c2ccc(Cl)cc2)on1 | inactive: -0.131% |
| CCOc1ccc(N(C(=O)c2ccccc2F)S(=O)(=O)c2ccc3c(c2)n(C)c(=O)n3C)cc1 | inactive: -1.01% |
| Cc1ccc(C(=O)CCC(=O)Nc2ccc(C)cc2C)cc1 | inactive: 0.382% |

| Compound | activity change, negative = cytotoxicity |
| --- | --- |
| CCc1ccccc1NC(=O)N1CCC(CN2CCc3ccccc3C2)CC1 | inactive: 19.6% |
| Cc1cc(C)cc(NS(=O)(=O)c2ccc(-n3cccn3)cc2)c1 | inactive: 10.4% |
| COCCCNC(=O)c1oc2c(c1C)-c1nn(Cc3ccc(Cl)cc3)cc1CC2 | inactive: -14.3% |
| COc1ccc(-c2cccc(NS(=O)(=O)c3ccc(C)s3)c2)nn1 | inactive: 2.16% |
| CC1CCC(Nc2ncnc3onc(-c4ccc(F)cc4)c23)CC1 (configuration not stated) | inactive: -17.3% |
| O=C(O)c1c(-c2ccccc2)oc2ccc(OCc3ccc(Cl)c(Cl)c3)cc12 | inactive: -0.619% |
| CCOc1cc(CNc2ccc(C(=O)O)cc2)ccc1OCc1ccccc1 | inactive: 22.3% |
| Cc1ccc(OCC(=O)N(Cc2ccco2)C2CCS(=O)(=O)C2)cc1 (configuration not stated) | inactive: -8.25% |
| CC(Oc1ccc(F)cc1)C(=O)Nc1cc(-c2ccc(F)c(F)c2)no1 (configuration not stated) | inactive: 8.81% |
| COC(=O)c1c(NC(=O)COc2cc(C)c(Cl)c(C)c2)sc2c1CCCC2 | inactive: -1.86% |
| COc1ccc(OC)c(S(=O)(=O)Nc2cc3c(C(C)=O)c(C)oc3c3ccccc23)c1 | inactive: -29.1% |
| COc1cccc(C2CC(=O)Nc3c2c(=O)n(C)c2ncnn32)c1OC (configuration not stated) | inactive: -0.618% |
| COc1ccc(CNC(=O)c2ccc3[nH]c(C)c(C)c3c2)c(OC)c1 | inactive: 4.2% |
| COc1ccc(C(=O)Nc2ccc(OCc3cc(=O)n4ccccc4n3)cc2)cc1 | inactive: 2.59% |
| CCOc1ccc(CCNC(=O)c2c(C)oc3ncnc(N4CCOCC4)c23)cc1 | inactive: 8.81% |
| Cc1cc(C)cc(NC(=O)CN(C)S(=O)(=O)c2ccc3[nH]c4c(c3c2)CCCC4)c1 | inactive: -6.26% |
| COCCCNC(=O)CSc1nc2ccccc2c(=O)n1Cc1ccco1 | inactive: -13.8% |
| COc1ccc(-c2onc(C)c2C)cc1S(=O)(=O)NCc1ccc(Br)cc1 | inactive: -21.3% |
| Cc1ccc(C)c(N2CCN(C(=O)CCS(=O)(=O)c3ccc4c(c3)CC(=O)N4C)CC2)c1 | inactive: -23.2% |
| CCc1nnc2c(NCCc3ccc(OC)c(OC)c3)nc3ccccc3n12 | inactive: 1.25% |
| O=C(NCCc1csc(-c2cccc(F)c2)n1)c1ccc(Br)o1 | inactive: 6.59% |
| Cc1ccc(Cl)cc1NCc1nnc2n1CCCCC2 | inactive: 6.31% |
